Data as given in a collection of fitness landscapes (doi:10.1126/science.1257360).
The other results are listed elsewhere or left out.

B1: PhoQ; a variant is named by its letters at X, in order, P23837 (parent)
chain: MKKLLRLFFPLSLRVRFLLATAAVVLVLSLAYGMVALIGYSVSFDKTTFRLLRGESNLFYTLAKWENNKLHVELPENIDKQSPTMTLIYDENGQLLWAQRDVPWLMKMIQPDWLKSNGFHEIEADVNDTSLLLSGDHSIQQQLQEVREDDDDAEMTHSVAVNVYPATSRMPKLTIVVVDTIPVELKSSYMVWSWFIYVLSANLLLVIPLLWVAAWWSLRPIEALAKEVRELEEHNRELLNPATTRELTSLVRNLNRLLKSERERYDKYRTTLTDLTHSLKTPLXXLQXXLRSLRSEKMSVSDAEPVMLEQISRISQQIGYYLHRASMRGGTLLSRELHPVAPLLDNLTSALNKVYQRKGVNISLDISPEISFVGEQNDFVEVMGNVLDNACKYCLEFVEISARQTDEHLYIVVEDDGPGIPLSKREVIFDRGQRVDTLRPGQGVGLAVAREITEQYEGKIVAGESMLGGARMEVIFGRQHSAPKDE

Variants of: B1
Assay: enrichment ratio after two sorts for PhoP signalling (ratio (wild type AVST 3.29)); higher = more functional
Conditions: with PhoP (E. coli)

Variant | enrichment ratio
ACSR | 7.12
THNF | 7.91
VEWN | ≤ 0.25
PCIH | ≤ 0.25
MWRM | ≤ 0.25
LYTS | ≤ 0.25
AMYW | ≤ 0.25
GTKQ | ≤ 0.25
WKRR | ≤ 0.25
SWHW | ≤ 0.25
TMCW | ≤ 0.25
EKSR | ≤ 0.25
VSSH | ≤ 0.25
YFTE | ≤ 0.25
SCTG | 7.75
GGYF | ≤ 0.25
VFHW | ≤ 0.25
FHRC | ≤ 0.25
GSIH | ≤ 0.25
MFFA | ≤ 0.25
DYHN | ≤ 0.25
VSHT | ≤ 0.25
IPMN | ≤ 0.25
FKEA | ≤ 0.25

Variant | enrichment ratio
MRFS | ≤ 0.25
WSVF | ≤ 0.25
RESK | ≤ 0.25
AIAP | 0.627
SDQF | ≤ 0.25
IHPK | ≤ 0.25
YCNY | ≤ 0.25
TRNK | ≤ 0.25
DTIA | ≤ 0.25
YHRH | ≤ 0.25
TKWA | ≤ 0.25
GTKF | ≤ 0.25
PYVT | ≤ 0.25
FITQ | ≤ 0.25
VQSF | ≤ 0.25
SWFQ | ≤ 0.25
EKCP | ≤ 0.25
IWPV | ≤ 0.25
VNRR | ≤ 0.25
YHPM | ≤ 0.25
MVPN | ≤ 0.25
WNEL | ≤ 0.25
QSDM | 13.7
SMIS | ≤ 0.25

Variant | enrichment ratio
PRQA | ≤ 0.25
MMMN | ≤ 0.25
HCGH | ≤ 0.25
LLKC | ≤ 0.25
FFMS | ≤ 0.25
DFCE | ≤ 0.25
WARC | ≤ 0.25
VLGR | ≤ 0.25
SMSN | 5.91
LIQS | ≤ 0.25
MDLM | ≤ 0.25
KCAN | ≤ 0.25
YYCT | ≤ 0.25
TDMP | ≤ 0.25
VKFD | ≤ 0.25
PDYQ | ≤ 0.25
YTNW | ≤ 0.25
NTWV | ≤ 0.25
PHWT | ≤ 0.25
PWNE | ≤ 0.25
FHGR | ≤ 0.25
ARNG | ≤ 0.25
MQHS | ≤ 0.25
EFEQ | ≤ 0.25

Variant | enrichment ratio
TQNL | 6.43
NPQQ | ≤ 0.25
SLQN | ≤ 0.25
KNIY | ≤ 0.25
PNDS | ≤ 0.25
KNVE | ≤ 0.25
TQAR | ≤ 0.25
YGTS | ≤ 0.25
ERFH | 2.67
TMCS | 16.8
VCPV | ≤ 0.25
FDVW | ≤ 0.25
WSYP | ≤ 0.25
LAYH | ≤ 0.25
TENG | 7.13
NSYK | ≤ 0.25
VFML | ≤ 0.25
ATAR | ≤ 0.25
ERCI | ≤ 0.25
DGVF | ≤ 0.25
VVIR | ≤ 0.25
DHSG | ≤ 0.25
PQFF | ≤ 0.25
LSSQ | ≤ 0.25

Variant | enrichment ratio
QTCD | ≤ 0.25
DSRT | ≤ 0.25
IHHF | ≤ 0.25
QIDL | ≤ 0.25
WSKR | ≤ 0.25
EYMC | ≤ 0.25
DVNM | ≤ 0.25
RAET | ≤ 0.25
YCII | ≤ 0.25
PRLD | ≤ 0.25
PDLP | 0.351
AFEF | ≤ 0.25
GLLH | ≤ 0.25
VPTI | ≤ 0.25
ALCC | 5.38
IFKA | ≤ 0.25
TNAN | 2.19
LWMV | ≤ 0.25
ILSH | ≤ 0.25
MKVN | ≤ 0.25
TIMM | 2.21
YWNV | ≤ 0.25
FRPE | ≤ 0.25
NSKQ | ≤ 0.25

Variant | enrichment ratio
AVFE | ≤ 0.25
RYVG | ≤ 0.25
NGHH | ≤ 0.25
MWAY | ≤ 0.25
YWVQ | ≤ 0.25
NAPD | ≤ 0.25
MFRI | ≤ 0.25
ILVI | ≤ 0.25
DTFL | ≤ 0.25
QFQS | ≤ 0.25
PVQV | ≤ 0.25
QSSV | 10.3
KYIQ | ≤ 0.25
HEFH | ≤ 0.25
GTCC | ≤ 0.25
NNCP | ≤ 0.25
IEDH | ≤ 0.25
YYFA | ≤ 0.25
WWST | ≤ 0.25
SQDK | ≤ 0.25
RSCQ | ≤ 0.25
ECLA | ≤ 0.25
NPKP | ≤ 0.25
NKIR | ≤ 0.25

Variant | enrichment ratio
SMKL | ≤ 0.25
LDNS | ≤ 0.25
RVTP | ≤ 0.25
TMQD | 10.9
NWLH | ≤ 0.25
QEIW | ≤ 0.25
KDVN | ≤ 0.25
HMYD | ≤ 0.25
VHTM | ≤ 0.25
SNSQ | 5.57
AEKA | ≤ 0.25
IHMF | ≤ 0.25
SLCN | 11.5
FKDV | ≤ 0.25
NFPY | ≤ 0.25
LGWK | ≤ 0.25
SAYL | 1.93
AIMY | 6.62
LKLI | ≤ 0.25
FDYF | ≤ 0.25
DVIK | ≤ 0.25
WWHM | ≤ 0.25
ITWI | ≤ 0.25
GPYQ | ≤ 0.25

Variant | enrichment ratio
GHCN | ≤ 0.25
RIHQ | ≤ 0.25
DWDY | ≤ 0.25
KTAM | ≤ 0.25
MAPK | ≤ 0.25
TDLQ | 18.8
YIWT | ≤ 0.25
GVTG | 0.328
RPHT | ≤ 0.25
TAIT | ≤ 0.25
FCVK | ≤ 0.25
GWPK | ≤ 0.25
TVMH | 5
WVRV | ≤ 0.25
YAYT | ≤ 0.25
FLIL | ≤ 0.25
QYCK | ≤ 0.25
IQNG | ≤ 0.25
TCTY | 14.7
TGNL | 6.33
DKYK | ≤ 0.25
DHGP | ≤ 0.25
QQVA | ≤ 0.25
VYLY | ≤ 0.25

Variant | enrichment ratio
FRPC | ≤ 0.25
GPTM | ≤ 0.25
EDCL | ≤ 0.25
HWYT | ≤ 0.25
LLCM | ≤ 0.25
IMPT | ≤ 0.25
WFQG | ≤ 0.25
RMCH | ≤ 0.25
MEWT | 34.7
DLVL | ≤ 0.25
FQSD | ≤ 0.25
GCVS | ≤ 0.25
IFVV | ≤ 0.25
HDNM | ≤ 0.25
TDSE | ≤ 0.25
RSSY | ≤ 0.25
TQFG | 9.31
GPVY | ≤ 0.25
HMGY | ≤ 0.25
WSNF | ≤ 0.25
RRHC | ≤ 0.25
FQVG | ≤ 0.25
GLGN | ≤ 0.25
MSQP | ≤ 0.25

Variant | enrichment ratio
HMVI | ≤ 0.25
TLWF | ≤ 0.25
TMMV | 4.75
PRLT | ≤ 0.25
YYAR | ≤ 0.25
DARF | ≤ 0.25
YKKN | ≤ 0.25
SSAP | ≤ 0.25
KINS | ≤ 0.25
PHYT | ≤ 0.25
MMAY | 0.946
IDNY | ≤ 0.25
QVFG | ≤ 0.25
MNDG | ≤ 0.25
MQPT | ≤ 0.25
VNQV | ≤ 0.25
EGRC | ≤ 0.25
TGRI | ≤ 0.25
NHYF | ≤ 0.25
KACL | ≤ 0.25
QALW | ≤ 0.25
GCLV | 14.5
WLWY | ≤ 0.25
WMAF | ≤ 0.25

Variant | enrichment ratio
LDDV | ≤ 0.25
KYMA | ≤ 0.25
TKCK | ≤ 0.25
QPYE | ≤ 0.25
RTVT | ≤ 0.25
NEAR | ≤ 0.25
TAVQ | ≤ 0.25
LHIW | ≤ 0.25
WPHW | ≤ 0.25
FTHP | ≤ 0.25
NDRK | ≤ 0.25
SHQM | 0.951
ETDF | ≤ 0.25
EYQW | ≤ 0.25
VPLY | ≤ 0.25
NADL | ≤ 0.25
HKDM | ≤ 0.25
RQHM | ≤ 0.25
CATL | ≤ 0.25
YAAY | ≤ 0.25
RFAF | ≤ 0.25
PEHS | ≤ 0.25
VLWW | ≤ 0.25
MGLH | 3.88

Variant | enrichment ratio
NPHY | ≤ 0.25
NQEA | ≤ 0.25
TQYG | 3.81
FNWC | ≤ 0.25
FHFY | ≤ 0.25
PHKT | ≤ 0.25
VQPM | ≤ 0.25
EHEI | ≤ 0.25
DMVV | ≤ 0.25
RMAK | ≤ 0.25
DFPG | ≤ 0.25
DEPI | ≤ 0.25
RFQP | ≤ 0.25
HDFY | ≤ 0.25
FCYC | ≤ 0.25
MTFE | ≤ 0.25
QQLL | ≤ 0.25
FCIG | ≤ 0.25
DQKM | ≤ 0.25
FPEE | ≤ 0.25
MEPV | ≤ 0.25
SVIL | ≤ 0.25
LGGM | ≤ 0.25
VFGI | ≤ 0.25

Variant | enrichment ratio
GVHW | ≤ 0.25
MYHV | 0.292
SFYS | ≤ 0.25
INIK | ≤ 0.25
DGFI | ≤ 0.25
MHFC | ≤ 0.25
LHQS | ≤ 0.25
VNVE | ≤ 0.25
MPFN | ≤ 0.25
EFMR | ≤ 0.25
RVYV | ≤ 0.25
DCHF | ≤ 0.25
GQSP | ≤ 0.25
RRWI | ≤ 0.25
AANS | ≤ 0.25
VCLC | 2.94
AKPK | ≤ 0.25
PQGH | ≤ 0.25
